# From PubChem BioAssay AID686971 (National Center for Advancing Translational Sciences (NCATS), 2013)
# Hit rate of the full screen: of about 360,000 compounds, about 7,500 (2.1%) were called active. Inconclusive means that the source gave no clear call. Such entries were picked first, then a sample of the others. Calls come from the whole dose curve; as a rule, active = well fitted cell-killing curve with a large enough effect; inconclusive = small, poorly fitted or top-dose-only effect, or effect the other way, or another doubt; inactive = no such curve, though single readings can be large or run the other way. No potency is given beside an inconclusive call; the fits are too rough.
# Experiment: qHTS for induction of synthetic lethality in tumor cells producing 2HG: qHTS for the HT-1080-IDH1KD cell line;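 for activity, negative = toxicity: 0% = DMSO wells and -100% = cell-free medium wells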
# Conditions: HT-1080 IDH1 knockdown viability, ATP luminescence, 48 h; activity, negative = toxicity: at 46.1 µM (top of the series) unless noted
# Outline: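 Viability of IDH1-knockdown HT-1080 fibrosarcoma cells was assessed by CellTiter-Glo after 48 h at 37 °C with titrated compound; concentration-effect curves were classified by fit quality and response size.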
# Potency is the fitted concentration of half-maximal effect; tags give direction and shape of the fitted curve.
Structure (SMILES),Potency,"activity, negative = toxicity"
Cc1cc(-c2nnc(SCC(=O)Nc3ccc(F)c(F)c3)n2N)n[nH]1,"inconclusive [cytotoxic, single point]",
CCN1C(=O)[C@H]2[C@@H](c3ccc(C(F)(F)F)cc3)N[C@]3(CCCN(CC4CCCCC4)C3=O)[C@H]2C1=O,inactive,
O=C(Cc1ccc([N+](=O)[O-])cc1)Nc1ccc(Cl)cc1,,inconclusive: -32.2% [cytotoxic]
CCn1cc(/C=C/c2cc[n+](C)cc2)c2ccccc21,"inconclusive [cytotoxic, single point]",
COc1ccc(Cc2nnc(NC(=O)c3cc(OC)c(OC)c(OC)c3)s2)cc1OC,"inconclusive [cytotoxic, partial curve]",
O=C(CSc1cc(Cl)ccc1Cl)NC1CCCc2ccccc21 (configuration not stated),inactive,
O=C(Nc1cccnc1)c1cccc(S(=O)(=O)N2CCc3ccccc32)c1,inactive,
COc1ccccc1/C=C1\SC(=S)N(CCC(=O)NNC(=O)c2ccccc2O)C1=O,"inconclusive [cytotoxic, partial curve]",
O=C1Nc2ccccc2C1C(C[N+](=O)[O-])c1ccccc1 (configuration not stated),inactive,
CS(=O)(=O)N1CCCC(c2nc(-c3ccc(S(=O)(=O)NCc4ccccc4)cc3)no2)C1 (configuration not stated),"inconclusive [cytotoxic, single point]",
COC(=O)c1c(-c2ccc(F)cc2)noc1N,active: 11.2 µM,
COc1ccc(C(=O)N2CCc3cc(OC)c(OC)cc3C2c2ccc(OC)c(OC)c2)cc1 (configuration not stated),"inconclusive [cytotoxic, single point]",
CCC1CCc2sc(C(=O)NCc3ccccn3)cc2C1 (configuration not stated),"inconclusive [cytotoxic, single point]",
Cc1csc(NC(=O)CSc2nnc(-c3ccoc3C)n2CCc2ccccc2)n1,"inconclusive [cytotoxic, single point]",
COc1ccc(C(=O)On2c(-c3ccc(Br)cc3)nc3ccccc3c2=O)cc1,"inconclusive [cytotoxic, partial curve]",
CC(C)NC(=S)N/N=C/c1cc(Br)ccc1O,"inconclusive [cytotoxic, partial curve]",
O=C1NC[C@@H](CCCCN2CCN(CC3CCCCC3)C(=O)C2=O)N(CC2CCCCC2)C1=O,"inconclusive [cytotoxic, single point]",
COc1ccc(CN2CN=C(Nc3nc4ccccc4s3)NC2)cc1,inactive,
COC(=O)c1cc(O)cc(OC)c1Oc1cc(C)cc(O)c1C(=O)O,"inconclusive [cytotoxic, single point]",
O=C(c1ccc(Cl)cc1)N1CCC(O)(CSc2ccc(Cl)cc2Cl)CC1,"inconclusive [cytotoxic, single point]",
CCCC12CN(C(=O)c3ccc([N+](=O)[O-])cc3)CC(C)(CN(C(=O)c3ccc([N+](=O)[O-])cc3)C1)C2=O,"inconclusive [cytotoxic, single point]",
C1CCc2c(nc3nnnn3c2N2CCOCC2)C1,inactive,
CN(C)CC(C)(C)CNC(C(=O)Nc1ccc(Cl)cc1C(F)(F)F)c1ccccc1 (configuration not stated),"inconclusive [cytotoxic, single point]",

Structure (SMILES),Potency,"activity, negative = toxicity"
COc1ccc(C(=O)c2sc(Nc3ccccc3)nc2N)cc1OC,"inconclusive [cytotoxic, single point]",
O=C(Nc1ccc(Cl)c(Cl)c1)N(CCCN1CCOCC1)Cc1cccs1,"inconclusive [cytotoxic, single point]",
O=S1(=O)CC(N2CCCCC2)CN1Cc1cn(Cc2cccc(Cl)c2)nn1 (configuration not stated),,inconclusive: 1.27%
COc1ccccc1NC(=O)c1ccccc1-c1nc(-c2ccccc2OC)no1,"inconclusive [cytotoxic, single point]",
NS(=O)(=O)c1cccc(NC(=O)COC(=O)c2cc(-c3ccc(Cl)cc3)nc3ccccc23)c1,"inconclusive [cytotoxic, single point]",
Brc1ccc(CSc2nnc3ccccn23)cc1,inactive,
Cc1ccc(C)c(C(C)NC(=S)NC2CCCCC2)c1 (configuration not stated),"inconclusive [cytotoxic, single point]",
C=CCC1(CC=C)CCCN1C(=O)c1cc(COc2ccc(-n3cncn3)cc2)on1,"inconclusive [cytotoxic, partial curve]",
O=C(N/N=C/c1cccnc1)c1ccccc1OCc1ccc(Br)cc1,"inconclusive [cytotoxic, single point]",
O=C(Nc1nc(-c2ccccn2)cs1)c1cccc(S(=O)(=O)N2CCOCC2)c1,"inconclusive [cytotoxic, partial curve]",
COc1ccccc1-c1cc(C(F)(F)F)nc(S(=O)(=O)CCCC(=O)NC(C)C)n1,active: 5.8 µM,
CCOc1cc(C(=S)N2CCC(O)CC2)ccc1OS(=O)(=O)c1ccc(Br)cc1,inactive,
Cc1ccc(NC(=O)c2cc(=O)n(Cc3ccccc3)c(=O)[nH]2)cc1C,"inconclusive [cytotoxic, single point]",
CCN1CCN(c2ccc(S(=O)(=O)N3CCCCC3)cc2NC(=O)COc2ccc(F)cc2Cl)CC1,active: 18.4 µM,
O=C(CSc1nnnn1-c1ccc2c(c1)OCO2)NCc1ccccc1,active: 12.6 µM,
COc1ccc(CC(N)c2csc(NC(=O)Nc3ccccc3Cc3ccccc3)n2)cc1 (configuration not stated),"inconclusive [cytotoxic, single point]",
CCc1ccccc1NC(=O)CSc1nc2n[nH]c(C)c2c(=N)n1-c1cccc(OC)c1,"inconclusive [cytotoxic, single point]",
O=C(O)COc1cnc2ccccc2n1,inactive,
Cc1ccccc1NC(=O)OCc1cccnc1Oc1ccc(Cl)cc1,"inconclusive [cytotoxic, single point]",
O=C(c1cc(COc2ccc(F)cc2F)on1)N1CCCC(c2ccccc2)C1 (configuration not stated),"inconclusive [cytotoxic, partial curve]",
OC1(c2cccc(F)c2)CCN(Cc2ccncc2)CC1,inactive,
COc1ccccc1N1CCN(C(=O)C2CCN(C(=O)c3ccccc3C)CC2)CC1,inactive,
CCN1CCN(C(c2cccnc2)c2cc(Cl)c3cccnc3c2O)CC1 (configuration not stated),"inconclusive [cytotoxic, single point]",

Structure (SMILES),Potency,"activity, negative = toxicity"
O=C(Nc1ccccc1)c1nc[nH]c1C(=O)NCCN(CCNC(=O)c1[nH]cnc1C(=O)Nc1ccccc1)CCNC(=O)c1[nH]cnc1C(=O)Nc1ccccc1,"inconclusive [cytotoxic, single point]",
Cc1ccc(NS(=O)(=O)c2cc(NC(=O)C(C)Oc3ccccc3)ccc2C)c(C)c1 (configuration not stated),"inconclusive [cytotoxic, single point]",
Clc1ccc(C[n+]2cc(-c3ccccc3)n3c2CCC3)cc1Cl,"inconclusive [cytotoxic, single point]",
CC(Cc1cccnc1)NC(=O)c1cc(COc2ccc(F)cc2F)on1 (configuration not stated),inactive,
CC(C)(C)S(=O)N1Cc2cc(C(=O)N3CCc4ccccc4C3)nc(-c3cccc(-c4cccnc4)c3)c2[C@@H]1CCO (some centres not stated),inactive,
CC(=O)C1=C(O)C(=O)N(CCc2c[nH]c3ccccc23)C1c1ccc(C)cc1 (configuration not stated),"inconclusive [cytotoxic, full curve]",
CCCN1CCc2c(sc(NC(=O)CCS(=O)(=O)c3ccccc3)c2C(N)=O)C1,inactive,
CC1=C(C(=O)N(C(C)C)C(C)C)CC(CC(=O)NC(c2ccccc2)c2ccccc2)C(=O)N1Cc1ccc(C(C)(C)C)cc1 (configuration not stated),"inconclusive [cytotoxic, single point]",
CCC(=O)OCCNc1cc(Sc2nc3ccccc3[nH]2)c2nonc2c1[N+](=O)[O-],"inconclusive [cytotoxic, single point]",
CSc1cccc(NC(=O)C2CCN(S(=O)(=O)c3ccc(F)cc3)CC2)c1,"inconclusive [cytotoxic, single point]",
CSc1nnc(NC(=O)c2nc(S(=O)(=O)Cc3ccc(C)cc3)ncc2Cl)s1,active: 6.51 µM,
CCN(CC)CC(C)(C)C(=O)/C=C/c1ccc(/C=C/C(=O)C(C)(C)CN(CC)CC)cc1,active: 1.64 µM,
Cc1ccc2c(c1)C1(SCCS1)C(=O)N2,"inconclusive [cytotoxic, single point]",
Cc1cc(N=Cc2c(O)n(-c3ccc4c(c3)OCO4)c(=O)c3ccccc23)ccn1,"inconclusive [cytotoxic, single point]",
COc1ccc(-c2nnnn2-c2ccccc2OC)cc1,"inconclusive [cytotoxic, single point]",
O=C(Nc1ccc(N2CCOCC2)cc1)c1cn2ccccc2n1,"inconclusive [cytotoxic, partial curve]",
c1ccc(-c2ccc(C3=Nn4c(nnc4-c4cc(-c5ccccc5)n[nH]4)SC3)cc2)cc1,active: 17.8 µM,
Cc1c(C)c(C)c(CO/N=C/c2cccs2)c(C)c1C,"inconclusive [cytotoxic, full curve, poor fit]",
Cc1[nH]n(-c2ncc(-c3ccc(Cl)cc3)s2)c(=O)c1C(c1ccc(Cl)cc1)C(C#N)C#N (configuration not stated),"inconclusive [cytotoxic, single point]",
Clc1cccc(Nc2nc(-c3ccncc3)cs2)c1,"inconclusive [cytotoxic, single point]",
Cc1cccc(OCCCC(=O)O)c1,inactive,
